Assay results published in PMC4336329 (PLoS ONE, 2015).
Among all 310,000 compounds or so, about 2,200 (0.71%) showed an effect of 50% or more. Effects have a minus sign here. The list shows a part of the results.

target: human ether-à-go-go-related gene (hERG) potassium channel (human, UniProt Q12809); assay: primary screen, population patch clamp on CHO cells stably expressing hERG
Sequence (Q12809 whole entry, looked up): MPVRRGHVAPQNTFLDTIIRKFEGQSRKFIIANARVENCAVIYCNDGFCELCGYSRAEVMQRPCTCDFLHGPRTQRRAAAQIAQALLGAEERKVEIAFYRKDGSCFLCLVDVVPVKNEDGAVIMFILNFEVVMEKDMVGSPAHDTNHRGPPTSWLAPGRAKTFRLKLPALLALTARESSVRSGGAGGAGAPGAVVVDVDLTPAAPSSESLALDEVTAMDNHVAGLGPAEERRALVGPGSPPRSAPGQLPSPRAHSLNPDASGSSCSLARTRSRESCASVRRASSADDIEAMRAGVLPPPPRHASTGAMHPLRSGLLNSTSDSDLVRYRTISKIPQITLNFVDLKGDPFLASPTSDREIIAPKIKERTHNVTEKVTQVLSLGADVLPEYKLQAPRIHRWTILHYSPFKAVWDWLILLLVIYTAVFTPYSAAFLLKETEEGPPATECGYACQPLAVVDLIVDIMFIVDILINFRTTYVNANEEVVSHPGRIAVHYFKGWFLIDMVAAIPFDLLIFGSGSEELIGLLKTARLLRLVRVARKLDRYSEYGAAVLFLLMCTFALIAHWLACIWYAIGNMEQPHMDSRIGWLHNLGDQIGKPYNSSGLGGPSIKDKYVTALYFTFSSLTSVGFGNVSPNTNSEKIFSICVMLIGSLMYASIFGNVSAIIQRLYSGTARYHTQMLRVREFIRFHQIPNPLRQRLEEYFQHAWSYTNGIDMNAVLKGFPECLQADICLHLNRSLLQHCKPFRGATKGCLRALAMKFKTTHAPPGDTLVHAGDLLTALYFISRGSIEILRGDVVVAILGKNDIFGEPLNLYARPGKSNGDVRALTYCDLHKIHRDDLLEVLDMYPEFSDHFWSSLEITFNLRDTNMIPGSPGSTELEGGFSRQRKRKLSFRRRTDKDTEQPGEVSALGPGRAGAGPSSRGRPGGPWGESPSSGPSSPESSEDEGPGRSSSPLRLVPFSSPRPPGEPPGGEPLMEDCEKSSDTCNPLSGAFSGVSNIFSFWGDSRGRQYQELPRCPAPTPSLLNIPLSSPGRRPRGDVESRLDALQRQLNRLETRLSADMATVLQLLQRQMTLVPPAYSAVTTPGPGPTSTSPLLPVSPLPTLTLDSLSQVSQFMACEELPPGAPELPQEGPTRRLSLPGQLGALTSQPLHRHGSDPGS

For `Cc1ccc(C(=O)Nn2cnnc2)cc1Cl`, which “hERG current change (%, negative = inhibition) at 1uM” value is on record?
Its value is 15.1%.

`NC(=O)C1(c2ccccc2)OC1c1ccccc1` (stereo not drawn) was tested. Which “hERG current change (%, negative = inhibition) at 1uM” value did it give?
Its value is 18.9%.

With `O=C(CCC1CCCCC1)Nc1nncs1` as the molecule, how does the “hERG current change (%, negative = inhibition) at 1uM” value read?
The value was 4.63%.

For `CC(C)(C)OC(=O)C(C(=O)OC(C)(C)C)c1ccc(Cl)nn1`, which “hERG current change (%, negative = inhibition) at 1uM” value is on record?
Its value is 12.9%.

How did the “hERG current change (%, negative = inhibition) at 1uM” value turn out when `CC(CCc1ccccc1)NC(=O)Cc1ccc([N+](=O)[O-])cc1` (stereo not drawn) was run?
The value was 4.14%.

How did the “hERG current change (%, negative = inhibition) at 1uM” value turn out when `Cc1ccnc(NS(=O)(=O)c2ccc(NC(=O)c3ccc(S(=O)(=O)N4CCCC4)cc3)cc2)n1` was run?
Its value is 12%.

`CCOC(=O)c1[nH]c(C)c(C(=O)OCC)c1C` was tested. Which “hERG current change (%, negative = inhibition) at 1uM” value did it give?
The value was 1.3%.

Which “hERG current change (%, negative = inhibition) at 1uM” value does the source give for `Cc1c(C(=O)O)c(C(=O)O)nc2ccc(N3CCOCC3)cc12` here?
Its value is 10.3%.

Which “hERG current change (%, negative = inhibition) at 1uM” value does the source give for `COc1ccc(C(=O)Nc2ccccc2C(=O)N/N=C/c2ccccc2OC)cc1` here?
The value was 19.1%.

`COc1ccccc1NC(=O)CCSc1nnc(-c2ccncc2)o1` was tested. Which “hERG current change (%, negative = inhibition) at 1uM” value did it give?
Its value is 7.19%.

How did the “hERG current change (%, negative = inhibition) at 1uM” value turn out when `CC(C)C(=O)N1CCC2(CC1)Oc1ccc(Cl)cc1C(=O)C21CC(c2cccnc2)=NO1` (stereo not drawn) was run?
Its value is 8.56%.

`O=C(COc1ccc(/C=N/NC(=O)c2ccncc2)cc1)Nc1cccc([N+](=O)[O-])c1` was tested. Which “hERG current change (%, negative = inhibition) at 1uM” value did it give?
The value was 17.4%.

Which “hERG current change (%, negative = inhibition) at 1uM” value does the source give for `COc1ccc(Br)cc1CN(C)CC(=O)Nc1cc([N+](=O)[O-])ccc1OC` here?
The value was 10.9%.

`COCCNC(=O)/C(C#N)=C\c1ccc(CNS(=O)(=O)c2ccc(C)cc2)o1` was tested. Which “hERG current change (%, negative = inhibition) at 1uM” value did it give?
Its value is 19.9%.

`CCOc1cc2c(cc1OCC)-n1cccc1C(c1cccc([N+](=O)[O-])c1)NC2.Cl` (stereo not drawn) was tested. Which “hERG current change (%, negative = inhibition) at 1uM” value did it give?
The value was -1.51%.

`CC(C)c1ccccc1NC(=O)C1CN(S(=O)(=O)c2ccccc2)CCN1S(=O)(=O)c1ccccc1` (stereo not drawn) was tested. Which “hERG current change (%, negative = inhibition) at 1uM” value did it give?
Its value is 14.1%.

`CCN1C(=O)c2ccc(C(=O)NCc3ccccc3)cc2C1=O` was tested. Which “hERG current change (%, negative = inhibition) at 1uM” value did it give?
Its value is 2.41%.

Which “hERG current change (%, negative = inhibition) at 1uM” value does the source give for `Cc1cccc(-c2noc(CN(C(=O)c3c(-c4ccccc4Cl)noc3C)C(C)C)n2)c1` here?
Its value is 5.35%.

Which “hERG current change (%, negative = inhibition) at 1uM” value does the source give for `COCCCNC(=O)C1CCN(C(=O)c2cc3sccc3n2Cc2ccc(F)cc2)CC1` here?
Its value is -2.94%.

With `O=C(C1=COCCO1)N1CCN(S(=O)(=O)c2cccc(Br)c2)CC1` as the molecule, how does the “hERG current change (%, negative = inhibition) at 1uM” value read?
The value was 0.865%.

For `O=C1NCCCC1C(=O)NCCNC(=O)C(F)(F)F` (stereo not drawn), which “hERG current change (%, negative = inhibition) at 1uM” value is on record?
The value was 17.1%.

Which “hERG current change (%, negative = inhibition) at 1uM” value does the source give for `CCN1C(=O)/C(=C\c2nc3ccccc3c(=O)n2-c2ccccc2)c2ccccc21` here?
The value was 12.1%.

For `Cc1cccc(N2CCN(C(=O)c3ccc(CNc4c(N5CCC(C)CC5)c(=O)c4=O)cc3)CC2)c1C`, which “hERG current change (%, negative = inhibition) at 1uM” value is on record?
Its value is 32.6%.

How did the “hERG current change (%, negative = inhibition) at 1uM” value turn out when `CCOC(=O)N1CCN(C(=O)c2cc(COc3cccc(C(C)=O)c3)on2)CC1` was run?
The value was 10.5%.

For `CN(CC(=O)NCc1ccncc1)S(=O)(=O)c1ccc(Br)cc1`, which “hERG current change (%, negative = inhibition) at 1uM” value is on record?
Its value is 3.23%.

For `NC1=NC(=O)C(Cc2ccc(F)cc2)S1` (stereo not drawn), which “hERG current change (%, negative = inhibition) at 1uM” value is on record?
The value was 4.95%.

How did the “hERG current change (%, negative = inhibition) at 1uM” value turn out when `CCCN(CCC)c1c([N+](=O)[O-])c(=O)oc2ccccc12` was run?
Its value is 4.19%.

How did the “hERG current change (%, negative = inhibition) at 1uM” value turn out when `Cn1c(=O)c2c(nc(OC/C=C/c3ccccc3)n2C)n(C)c1=O` was run?
The value was 8.03%.

`Cc1ccc(/C=C/C(=O)c2ccc([N+](=O)[O-])o2)cc1` was tested. Which “hERG current change (%, negative = inhibition) at 1uM” value did it give?
The value was 0.949%.

Which “hERG current change (%, negative = inhibition) at 1uM” value does the source give for `O=S(=O)(NCCSc1ccccc1)c1ccc2c(c1)OCCO2` here?
Its value is 9.78%.

How did the “hERG current change (%, negative = inhibition) at 1uM” value turn out when `c1ccc(-c2nnsc2-c2ncc[nH]2)cc1` was run?
Its value is 6.79%.

For `O=C(OCc1c(-c2ccccc2)ncc2ccccc12)c1ccc(Br)cc1`, which “hERG current change (%, negative = inhibition) at 1uM” value is on record?
Its value is 14.3%.

With `Cc1cc2ncn(/N=C/c3ccc([N+](=O)[O-])o3)c2cc1C` as the molecule, how does the “hERG current change (%, negative = inhibition) at 1uM” value read?
Its value is 7.96%.

With `Cc1ccc(CS(=O)(=O)CCC(=O)NCCN(C)Cc2ccccc2)cc1` as the molecule, how does the “hERG current change (%, negative = inhibition) at 1uM” value read?
Its value is 0.396%.

For `COC(=O)C(Cc1ccccc1)NC(=O)CC(C)CC(=O)Nc1ccc(C)cc1` (stereo not drawn), which “hERG current change (%, negative = inhibition) at 1uM” value is on record?
The value was 12.9%.

`CCCNc1nc(Cl)nc(Nc2ccc(Cl)cc2)n1` was tested. Which “hERG current change (%, negative = inhibition) at 1uM” value did it give?
The value was 10.7%.

With `C/C(Cl)=C/Cn1c(NCCCn2ccnc2)nc2c1c(=O)[nH]c(=O)n2C` as the molecule, how does the “hERG current change (%, negative = inhibition) at 1uM” value read?
The value was 1.17%.

Which “hERG current change (%, negative = inhibition) at 1uM” value does the source give for `COc1ccc(OC)c(/C=C2\S/C(=N/NC(=O)c3ccc4ccccc4c3)NC2=O)c1` here?
The value was 11.6%.

For `Oc1ccc2ccccc2c1C=NC12CN3CCN(CN(C3)C1)C2`, which “hERG current change (%, negative = inhibition) at 1uM” value is on record?
The value was 10.2%.

Which “hERG current change (%, negative = inhibition) at 1uM” value does the source give for `COc1cccc(CN2CCN(Cc3ccc(C#CC(C)(C)O)s3)CC2CCO)c1` (stereo not drawn) here?
The value was -3.61%.

For `Cc1c(OCC(=O)NCC2CCC(C(=O)O)CC2)ccc2c3c(c(=O)oc12)CCC3` (stereo not drawn), which “hERG current change (%, negative = inhibition) at 1uM” value is on record?
The value was 7.67%.

Which “hERG current change (%, negative = inhibition) at 1uM” value does the source give for `Cc1cccc(CN2CCOCCS2(=O)=O)c1` here?
The value was 12.4%.

Which “hERG current change (%, negative = inhibition) at 1uM” value does the source give for `Cc1cccc(NC(=O)CCSc2nnc(Cc3ccccc3)o2)c1` here?
Its value is 5.01%.

For `CC(C)CNS(=O)(=O)c1ccc(CCC(=O)N2CCC(C(N)=O)CC2)cc1`, which “hERG current change (%, negative = inhibition) at 1uM” value is on record?
Its value is -2.41%.

`COc1ccc(S(N)(=O)=O)cc1C(=O)OCC(=O)NC(C)(C#N)C1CC1` (stereo not drawn) was tested. Which “hERG current change (%, negative = inhibition) at 1uM” value did it give?
The value was 16%.

`CCCCNC(=O)CCCn1c(=S)[nH]c2cc3c(cc2c1=O)OCO3` was tested. Which “hERG current change (%, negative = inhibition) at 1uM” value did it give?
Its value is 19.2%.

How did the “hERG current change (%, negative = inhibition) at 1uM” value turn out when `CCNC(=O)CN(Cc1ccccc1)S(=O)(=O)c1ccccc1` was run?
Its value is 12.5%.

How did the “hERG current change (%, negative = inhibition) at 1uM” value turn out when `Cc1cc(C)nc(NC(=O)CSc2ncccn2)n1` was run?
Its value is 14.1%.

With `COc1cc(OC)nc(-n2ncc(OC)c(Br)c2=O)n1` as the molecule, how does the “hERG current change (%, negative = inhibition) at 1uM” value read?
The value was 6.67%.

Which “hERG current change (%, negative = inhibition) at 1uM” value does the source give for `O=C(Nc1cccc(O)c1)c1ccccc1` here?
Its value is -0.974%.

For `CN(C)Cc1c(C(=O)N/N=C/c2ccc(OCc3c(F)cccc3Cl)cc2)nnn1-c1nonc1N`, which “hERG current change (%, negative = inhibition) at 1uM” value is on record?
Its value is 14.3%.

For `O=C(CCCC(=O)OCC(Cl)=C(Cl)Cl)Nc1ccccc1F`, which “hERG current change (%, negative = inhibition) at 1uM” value is on record?
Its value is 19.5%.

`CCOc1ccc2[nH]c3c(N4CCc5ccccc5C4)ncnc3c2c1` was tested. Which “hERG current change (%, negative = inhibition) at 1uM” value did it give?
The value was 14.1%.

Which “hERG current change (%, negative = inhibition) at 1uM” value does the source give for `CCC(=O)NC1=C(C#N)C2(CCCC2)Cc2ccccc21` here?
The value was 4.39%.

With `O=C(c1ccc(CS(=O)(=O)c2ccccc2)o1)N1CCC2(CC1)OCCO2` as the molecule, how does the “hERG current change (%, negative = inhibition) at 1uM” value read?
The value was -3.2%.

With `CCOc1ccc(/C=C2\SC(=S)NC2=O)cc1OC` as the molecule, how does the “hERG current change (%, negative = inhibition) at 1uM” value read?
The value was 16.7%.

With `COc1cc(/C=C2\SC(=S)N(CCC(=O)N3CCCCC3)C2=O)cc(OC)c1OC` as the molecule, how does the “hERG current change (%, negative = inhibition) at 1uM” value read?
Its value is 0.0963%.
